Among all 310,000 compounds or so, about 2,200 (0.71%) showed an effect of 50% or more. Effects have a minus sign here. Some of the results follow.

The target of this test is human ether-à-go-go-related gene (hERG) potassium channel (human, UniProt Q12809). Nature of the test: primary screen, population patch clamp on CHO cells stably expressing hERG.
Chain of human ether-à-go-go-related gene (hERG) potassium channel (Q12809 whole entry, looked up): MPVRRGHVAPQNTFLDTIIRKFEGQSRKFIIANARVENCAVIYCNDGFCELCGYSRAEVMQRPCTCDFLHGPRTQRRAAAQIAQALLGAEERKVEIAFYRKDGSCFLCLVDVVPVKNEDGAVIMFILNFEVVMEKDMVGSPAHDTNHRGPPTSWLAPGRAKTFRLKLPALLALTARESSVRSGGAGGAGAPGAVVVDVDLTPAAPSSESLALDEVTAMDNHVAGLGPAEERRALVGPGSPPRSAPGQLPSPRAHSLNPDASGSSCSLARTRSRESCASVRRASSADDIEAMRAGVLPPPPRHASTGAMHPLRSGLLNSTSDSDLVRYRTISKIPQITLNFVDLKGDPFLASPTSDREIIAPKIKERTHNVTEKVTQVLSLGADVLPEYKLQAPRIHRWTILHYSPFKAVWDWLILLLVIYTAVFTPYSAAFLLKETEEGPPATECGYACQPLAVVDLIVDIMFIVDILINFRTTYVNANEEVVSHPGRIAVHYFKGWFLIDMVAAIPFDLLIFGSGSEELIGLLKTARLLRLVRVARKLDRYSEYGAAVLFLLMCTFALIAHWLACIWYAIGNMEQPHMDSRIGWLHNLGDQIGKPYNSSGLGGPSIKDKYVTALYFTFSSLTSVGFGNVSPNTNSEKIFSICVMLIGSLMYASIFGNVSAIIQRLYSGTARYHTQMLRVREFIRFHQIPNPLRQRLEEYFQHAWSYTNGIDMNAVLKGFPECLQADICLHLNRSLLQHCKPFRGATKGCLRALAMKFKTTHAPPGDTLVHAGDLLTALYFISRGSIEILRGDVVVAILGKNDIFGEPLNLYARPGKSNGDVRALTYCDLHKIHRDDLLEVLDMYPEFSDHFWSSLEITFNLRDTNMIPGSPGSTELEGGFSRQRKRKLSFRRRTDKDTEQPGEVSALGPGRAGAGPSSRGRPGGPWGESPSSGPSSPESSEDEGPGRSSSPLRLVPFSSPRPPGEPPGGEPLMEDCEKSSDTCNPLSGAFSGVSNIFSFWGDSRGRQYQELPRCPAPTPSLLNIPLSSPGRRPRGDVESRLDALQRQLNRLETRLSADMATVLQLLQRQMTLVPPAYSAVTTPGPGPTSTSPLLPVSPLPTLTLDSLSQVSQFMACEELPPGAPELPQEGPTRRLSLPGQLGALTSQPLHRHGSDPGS
With `CCOC(=O)c1nnn2c1nc(N1CCN(c3ccccc3)CC1)c1ccccc12`, the “hERG current change (%, negative = inhibition) at 1uM” value is given as -0.764%.

As for `N#Cc1cc([N+](=O)[O-])ccc1NC(=O)CSc1n[nH]c(=O)n1C1CC1`, the “hERG current change (%, negative = inhibition) at 1uM” value was found to be 9.63%.

Turning to `C=CCc1c(C)nc2ccc(C(=O)OCC)cc2c1Cl`, the “hERG current change (%, negative = inhibition) at 1uM” value worked out at 13.9%.

Consider `Cn1nc(C(F)(F)F)c(C#N)c1N1CCN(c2ccccn2)CC1`, for which the “hERG current change (%, negative = inhibition) at 1uM” value is 4.67%.

With `COc1ccc2c(c1)N1CCN=C1N2C.Cl`, the “hERG current change (%, negative = inhibition) at 1uM” value is on record as 5.26%.

As for `CCOC(=O)c1cc(-c2nnc(-c3cc(OC)c(OC)c(OC)c3)o2)c(C)nc1C`, the “hERG current change (%, negative = inhibition) at 1uM” value is reported as 7.43%.

For the molecule `CCCNC(=O)c1c[nH]c2ccc(S(=O)(=O)N(C)c3ccc(OCC)cc3)cc2c1=O`, the “hERG current change (%, negative = inhibition) at 1uM” value is listed as 4.72%.

With `CCNC(=S)NNC(=O)c1cc(-c2ccc(OCC)cc2)nc2ccccc12`, the “hERG current change (%, negative = inhibition) at 1uM” value is 4.57%.

As to `CC(=C/c1ccco1)/C=N/NC(=O)c1ccncc1`, the “hERG current change (%, negative = inhibition) at 1uM” value was 7.15%.

As to `CN(C)C1=NC[C@H](Cc2ccccc2)N1CC1CCCC1`, the “hERG current change (%, negative = inhibition) at 1uM” value is recorded as -0.122%.

`O=C(CSc1nc(=O)n2ccccc2n1)NCc1ccc2c(c1)OCO2`: the “hERG current change (%, negative = inhibition) at 1uM” value is on record as -8.25%.

As for `CCOc1ccc(CCNC(=O)C2CC(=O)N(CCc3ccc(OC)c(OC)c3)C2)cc1OCC` (stereo not drawn), the “hERG current change (%, negative = inhibition) at 1uM” value stood at 8.71%.

As for `O=C(NCc1ccccn1)C1CCN(S(=O)(=O)c2ccc(Br)cc2)CC1`, the “hERG current change (%, negative = inhibition) at 1uM” value turned out to be 4.9%.

`C=CCN(c1ccccc1C(=O)NCC(=O)O)S(=O)(=O)c1ccc(C)cc1`: the “hERG current change (%, negative = inhibition) at 1uM” value stood at 12.3%.

As to `N#CC1=C(N)Oc2[nH]c(=S)[nH]c(=O)c2C12C(=O)Nc1ccccc12` (stereo not drawn), the “hERG current change (%, negative = inhibition) at 1uM” value is 9.66%.

Regarding `CCOc1ccc(N(CC(=O)NCc2ccccc2Cl)S(=O)(=O)c2c(C)[nH]c(=O)[nH]c2=O)cc1`, the “hERG current change (%, negative = inhibition) at 1uM” value turned out to be 13.4%.

In the case of `N/C(=N\N=C\c1ccc(O)cc1O)N[N+](=O)[O-]`, the “hERG current change (%, negative = inhibition) at 1uM” value is 8.72%.

Consider `O=C(NCCc1ccccc1)c1ccc([N+](=O)[O-])cc1`, for which the “hERG current change (%, negative = inhibition) at 1uM” value worked out at 6.33%.

With `CC[N+]1(C)[C@@H]2CC[C@H]1CC(OC(=O)[C@H]1CCC(C(=O)OC3C[C@H]4CC[C@@H](C3)[N+]4(C)CC)(c3ccccc3)c3ccccc31)C2.[Cl-]` (stereo partly drawn), the “hERG current change (%, negative = inhibition) at 1uM” value is given as 12.4%.

As for `CCc1ccc(C2C(C#N)=C(N)N(N(C)C)C3=C2C(=O)CCC3)s1` (stereo not drawn), the “hERG current change (%, negative = inhibition) at 1uM” value is on record as -5.8%.

As to `O=C(Nc1nccs1)c1ccc(N2C(=O)C3CCCCC3C2=O)cc1` (stereo not drawn), the “hERG current change (%, negative = inhibition) at 1uM” value worked out at 10.1%.

For `CN(C)/C=C/C(=O)c1ccc(F)cc1`, the “hERG current change (%, negative = inhibition) at 1uM” value worked out at 4.7%.

With `Cc1cc(-n2cnnn2)cc(C)c1S(=O)(=O)NCCOc1ccccc1`, the “hERG current change (%, negative = inhibition) at 1uM” value is -5.02%.

`O=C(NCCc1ccc(Cl)cc1)c1ccc2nc[nH]c2c1`: the “hERG current change (%, negative = inhibition) at 1uM” value is reported as 6.99%.

As to `O=S1(=O)CC(O)C(Nc2ccccc2)C1` (stereo not drawn), the “hERG current change (%, negative = inhibition) at 1uM” value came out at 10.2%.

With `COC(=O)c1sccc1NC(=O)c1ccnn1C`, the “hERG current change (%, negative = inhibition) at 1uM” value is on record as 13.1%.

Take `O=C(CCCn1cc([N+](=O)[O-])cn1)N1CCCCC1`: the “hERG current change (%, negative = inhibition) at 1uM” value came out at 10.1%.

For `CN(C)c1nn(C(=O)Nc2cccc(C(F)(F)F)c2)cc1-c1ccccc1`, the “hERG current change (%, negative = inhibition) at 1uM” value was determined as 11.7%.

Turning to `CCn1c(SCC(=O)N2CCN(c3ccc(F)cc3)CC2)nc2ccccc2c1=O`, the “hERG current change (%, negative = inhibition) at 1uM” value is -35.4%.

As for `COc1ccc2[nH]c(=O)cc(C(=O)O)c2c1`, the “hERG current change (%, negative = inhibition) at 1uM” value amounted to 6.54%.

With `CC1CCCN(C(=O)c2cccc(S(=O)(=O)Nc3cc(C(F)(F)F)ccc3Cl)c2)C1` (stereo not drawn), the “hERG current change (%, negative = inhibition) at 1uM” value came to 6.51%.

On to `CC1CCCCC1NC(=O)c1cncc(Br)c1` (stereo not drawn), for which the “hERG current change (%, negative = inhibition) at 1uM” value worked out at 16%.

As for `O=C(Nc1nnc(S(=O)(=O)N2CCCC2)s1)c1ccccc1F`, the “hERG current change (%, negative = inhibition) at 1uM” value is recorded as 12.3%.

In the case of `CC(=O)Cn1ncc(N2CCCCC2)c(Cl)c1=O`, the “hERG current change (%, negative = inhibition) at 1uM” value worked out at 15.4%.

`Cc1ccc(S(=O)(=O)N(C)c2ccc(OC(=O)c3ccc(=O)[nH]c3)cc2)cc1`: the “hERG current change (%, negative = inhibition) at 1uM” value is 9.07%.

`O=C1/C(=C/c2cccs2)Sc2ccccc21`: the “hERG current change (%, negative = inhibition) at 1uM” value is on record as 10.5%.

Regarding `CCN(CC)CCOC(=O)c1ccc2c(c1)OCCO2.Cl`, the “hERG current change (%, negative = inhibition) at 1uM” value was 0.928%.

Regarding `C(=Nc1ccc(N2CCOCC2)cc1)c1c[nH]c2ccccc12`, the “hERG current change (%, negative = inhibition) at 1uM” value is reported as 14.6%.

As for `Cc1c(C(=O)N2CCC3(CC2)OCCO3)oc2ccccc12`, the “hERG current change (%, negative = inhibition) at 1uM” value was -4.89%.

`CCOC(=O)N1CCN(C(=O)C(C)n2nc(C)n3c(cc4sccc43)c2=O)CC1` (stereo not drawn): the “hERG current change (%, negative = inhibition) at 1uM” value came to 5.91%.

Turning to `Nc1nonc1-n1nnc(C(=O)N/N=C/c2cccc(Cl)c2)c1-c1ccc2c(c1)OCO2`, the “hERG current change (%, negative = inhibition) at 1uM” value is -1.95%.

On to `CC(C)CNC1=CC(=O)CC(c2ccco2)C1` (stereo not drawn), for which the “hERG current change (%, negative = inhibition) at 1uM” value worked out at 14.5%.

In the case of `CC1=NN(c2ccccc2)C(=O)C1(C)C`, the “hERG current change (%, negative = inhibition) at 1uM” value was determined as 8.96%.

For the molecule `COc1ccc(N2C(=O)CSC2c2cccc(F)c2)c(OC)c1` (stereo not drawn), the “hERG current change (%, negative = inhibition) at 1uM” value is 11.7%.

Consider `CCOC(=O)c1c(CN2CCN(c3ccccc3)CC2)oc2ccc(O)cc12`, for which the “hERG current change (%, negative = inhibition) at 1uM” value was 12.6%.

Source of the values: publication PMC4336329 (PLoS ONE, 2015).
